Measurements from the supplement of paper PMC10338343.
± gives the standard deviation. The full ranking holds about 5,500 sequences; the median of “pre-steady-state target cleavage rate” is about 0.1, and the highest 2% start at about 0.64. This is a selection; strong and weak results do not stand in their true shares.

These sequences were tested on MIWI (PIWIL1) piRISC loaded with piRNA #2 (30 nt) (assay: pre-steady-state target cleavage rate (min^-1); MIWI and MILI are mouse PIWI proteins and EfPiwi is from a freshwater sponge; tags in brackets are library labels; higher = faster piRNA-guided slicing of the target). Conditions: guide: piRNA #2 5'p-UUAGGUAACCCAGUAGAUCCAGAGGAAUUC; auxiliary factor: 500 nM mouse GTSF1.
How it was run: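 In HEPES–potassium acetate buffer at 33 °C, […] transcribed, DNA-blocked target RNA library was mixed with 1 nM active affinity-purified piRISC carrying one synthetic guide, with or without 500 nM GTSF1 partner protein, for 0–8 or 0–960 min. Uncleaved targets were sequenced and normalised to depth and to weakly complementary targets; three trials were pooled and k3 was capped at 0.0001 min^-1. The pre-steady-state cleavage rate followed from a burst-and-steady-state fit.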

| Sequence | pre-steady-state target cleavage rate |
| --- | --- |
| GAAUUCCUCUGGAUCUACUGGGUUCCCUAA | 0.195 ± 0.039 |
| CAUUUCCUCUCGAUCUACUGGGUUACCUAA | 0.808 ± 0.052 |
| CUUAAGGAGACCUACUACUGGCGUUACCUAA | 0.00806 ± 0.0036 |
| CAAUUCCUCUGGAUCUACUGGGUGACCUAA | 0.319 ± 0.044 |
| CUUUUCCUCUCGAUCAACUGGGUUACCUAA | 0.553 ± 0.039 |
| CUUAAGCUCUGGAUGCUACUGGGUUACCUAA | 0.09 ± 0.015 |
| CUUAAGCACUGGAUCUACUGGGUUACCUAA | 0.293 ± 0.033 |
| CUUUUGCUCUGGAUCUACUGGGUAACCUAA | 0.093 ± 0.016 |
| GAAUUCCUCUGGAUCUACUGGGUUUCCUAA | 0.27 ± 0.047 |
| CUUAAGCUCUGGUUCUACUCGGUUACCUAA | 0.0643 ± 0.0085 |
| CUUAACCUCUCGGAUCUACUGGGUUACCUAA | 0.225 ± 0.025 |
| CUAUUCCUCUGGUUCAACUGGGUUACCUAA | 0.485 ± 0.035 |
| CUAUUCCUCUGGAUCUACUGGCUUACCUUA | 0.0561 ± 0.016 |
| CUUAAGGUCUGGAUCAUCUGGGUUACCUAA | 0.0609 ± 0.018 |
| CUAUUCCACUGGAUCUACUGGGUUUCCUAA | 0.448 ± 0.066 |
| CUUAAGGAGAGGAUCUACUGAGUUACCUAA | 0.0392 ± 0.0091 |
| CAAAUCCUCUGGAUCUACUGGGUUACCUUA | 0.394 ± 0.057 |
| CUAUUCCUCUGGUCUACUGGGUUACCUAA | 0.341 ± 0.084 |
| CUUAACCCUGGAUCUACUGGGUUACCUAA | 0.326 ± 0.033 |
| CUUAUCCUCUGGAUCUACUGGGUUACCUA | 0.455 ± 0.069 |
| CUUAAGGACUGGAUCUACUAGGUUACCUAA | 0.0835 ± 0.039 |
| CUUAAGCUCAGGAUCUACUGGGUAACCUAA | 0.0991 ± 0.022 |
| CUUUUCCUCUGGAUCUACUGGGUUACCUAAA | 0.34 ± 0.043 |
| CUUAAGGAGACCAUCUACUGGCGUUACCUAA | 0.0115 ± 0.0026 |

| Sequence | pre-steady-state target cleavage rate |
| --- | --- |
| CUUUUGCUCUGGUUCUACUGGGUUACCUAA | 0.391 ± 0.031 |
| CUUUUCCUCUGGAUCUACUGGGUAAGCUAA | 0.0752 ± 0.018 |
| CAAUUCCUCUGGAUCAACUCGGUUACCUAA | 0.0921 ± 0.02 |
| CUUAAGCUCUGGAUCUACUGGCUUACCUAA | 0.0576 ± 0.012 |
| GAAUUCCUCUGGAUCUACUCCCAAUGGAUA [g12:g30:cont:t1A] | < 0.0001 |
| CUUUUCCUCUAGAUCUACUGGGUUACCUAA | 0.597 ± 0.035 |
| CUUUUCCUCUGGAUCACUGGGUUACCUAA | 0.0366 ± 0.011 |
| CUUAAGGAGUGGAUCUACUGGGUUACCUCAA | 0.0757 ± 0.025 |
| CUUAACCUCUGGAUCUACUGGGUUUGGAUA [g7:g25:cont:t1A] | 0.00825 ± 0.0039 |
| CUUUUCCUCUGCAUCUACUGGGUUACCUUA | 0.316 ± 0.05 |
| CUUAAGGUCUGCAUCUACUGGGUUAGCUAA | 0.117 ± 0.026 |
| CAAUUCCUCUGGAUCUACUGGCGUUACCUAA | 0.00552 ± 0.0033 |
| CUUAAGGACUGGAUCUACUGCGUUACCUUA | 0.0962 ± 0.053 |
| CAAUUGCUCUGGAUCUACUGGGUAACCUAA | 0.156 ± 0.035 |
| CUUUUCCUCUGGGAUCUACUGGGUUACCUAA | 0.455 ± 0.037 |
| CUAUUCCUGUGGAUCUACUGGGUAACCUAA | 0.19 ± 0.041 |
| CUUAACCUCUGGAUCUACUGGGUUACCUAAA | 0.174 ± 0.024 |
| CUUUGCCUCUGGAUCUACUGGGUUACCUAA | 0.286 ± 0.031 |
| CAAUAUCCUCUGGAUCUACUGGGUUACCUAA | 0.488 ± 0.075 |
| CUUAAGGACUGGAUCUACUGGGAUACGUAA | 0.0915 ± 0.035 |
| CUUUUCCUCUGCAUCUACUGGGUUACGUAA | 0.286 ± 0.035 |
| CUUAAGCUCUCGAUCUACUGGCUUACCUAA | 0.11 ± 0.0093 |
| GAAUUCUCUCUGGAUCUACUGGGUUACCUAA | 0.252 ± 0.05 |
| CUUAACCUCUGGAUCUACUGGGUUACCUAA [g2:g25:cont:t1A] | 0.228 ± 0.033 |

| Sequence | pre-steady-state target cleavage rate |
| --- | --- |
| GAAUUCCUCUGGAUCUUCUGGGUUACCUUA | 0.226 ± 0.046 |
| CAAUCUCCUCUGGAUCUACUGGGUUACCUAA | 0.425 ± 0.069 |
| CUAAUCCUCUGGAUCUUCUGGGUUACCUAA | 0.464 ± 0.059 |
| CUUUUCCACUGCAUCUACUGGGUUACCUAA | 0.406 ± 0.024 |
| CUAUUCCUCUGGAUCUACUGCGUAACCUAA | 0.175 ± 0.043 |
| CUUAAGGUCUGCAUCUACUGGGUUACCUUA | 0.0594 ± 0.01 |
| CUUAAGGAGUGGAUCUACUGGGUAACGUAA | 0.0159 ± 0.0086 |
| GAAUUCCUGUGGAUCUACUGGGUUACCAAA | 0.1 ± 0.021 |
| CUUAAGCUCUGCAUCUACUGCGUUACCUAA | 0.315 ± 0.048 |
| CUAUUCCUCUGAAUCUACUGGGUUACCUAA | 0.25 ± 0.046 |
| CAAUUCCUCUGGUAGUACUGGGUUACCUAA | 0.247 ± 0.031 |
| CUUAAGGACUGGAUCUACUGGGUUACUAA | 0.0207 ± 0.018 |
| CUUAAGCUCUGGUUCUACUGGCUUACCUAA | 0.0753 ± 0.0091 |
| CUUUACCUCUGCAUCUACUGGGUUACCUAA | 0.348 ± 0.027 |
| CUAUUCCUCUGGAUCUACUGGGUUACCUAC [g2:g28:cont:t1C] | 0.295 ± 0.037 |
| CAAUUCCACUGGAUCUUCUGGGUUACCUAA | 0.461 ± 0.066 |
| GAAUUCCUCAGGAUCUACUGGGUUACCAAA | 0.459 ± 0.055 |
| CUUAACCUCUGGAUCUACUGCGUUACGUAA | 0.254 ± 0.039 |
| CUUAAGCUCUGGAUCAACUGGGUUUCCUAA | 0.055 ± 0.01 |
| CUUAACCUCUGGAUCAACUGGGAUACCUAA | 0.0682 ± 0.0085 |
| CUAUUCCUCAGGAACUACUGGGUUACCUAA | 0.332 ± 0.035 |
| CUAUUCCUCUGGAUCUACUGGGAUUCCUAA | 0.0897 ± 0.032 |
| CAAUUCCUCUGGAAUCUACUGGGUUACCUAA | 0.493 ± 0.056 |
